Experimental data from US10046060B2, “Co-administration of an agent linked to an internalization peptide with an anti-inflammatory” (NoNO Inc., priority 2007, dated 2018).

Test system: rats
Test: Mean arterial pressure (MAP) in rats after Tat peptides with or without anti-inflammatory agents
Settings: cromolyn 5 mg/kg i.v. about five minutes before Tat-NR2B9c; FIGS. 8A-D

SMILES: O=C(O)c1cc(=O)c2c(OCC(O)COc3cccc4oc(C(=O)O)cc(=O)c34)cccc2o1 [cromolyn, 5,5′-(2-hydroxypropane-1,3-diyl)bis(oxy)bis(4-oxo-4H-chromene-2-carboxylic acid)]
- Effect on decline in MAP due to Tat-NR2B9c: significantly reduces the decline in MAP
